Biological target: dopamine D2 receptor (Homo sapiens, UniProt P14416)
Assay: biochemical
Details: D2 Ki (nM), 0.4 nM [3H]spiperone, CHO-hD2L membranes

Chain of UniProt P14416 (P14416 whole entry): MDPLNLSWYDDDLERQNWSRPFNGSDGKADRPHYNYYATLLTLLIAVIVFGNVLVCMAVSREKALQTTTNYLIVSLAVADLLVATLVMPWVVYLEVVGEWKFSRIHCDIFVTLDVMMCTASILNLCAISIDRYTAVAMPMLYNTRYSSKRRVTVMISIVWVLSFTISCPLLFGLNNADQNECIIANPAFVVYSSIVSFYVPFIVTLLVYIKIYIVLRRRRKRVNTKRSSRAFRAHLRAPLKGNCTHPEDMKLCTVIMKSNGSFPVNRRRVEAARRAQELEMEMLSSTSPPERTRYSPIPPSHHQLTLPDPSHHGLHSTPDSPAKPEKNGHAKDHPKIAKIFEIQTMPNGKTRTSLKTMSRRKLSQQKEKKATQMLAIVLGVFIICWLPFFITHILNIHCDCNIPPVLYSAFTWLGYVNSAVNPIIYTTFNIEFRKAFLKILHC

Compound | Ki (Table 1) | Ki (Table 2)
O=C1Cc2cccc(N3CCN(CCCCOc4ccc5ccc(=O)[nH]c5n4)CC3)c2C1 [Example B45, 7-{4-[4-(2-Oxo-indan-4-yl)-piperazin-1-yl]-butoxy}-1H-[1,8]naphthyridin-2-one] | 0.6 nM | 
O=c1ccc2ccc(OCCCCN3CCN(c4cccc5c4CC(F)(F)C5)CC3)nc2[nH]1 [Example B46, 7-{4-[4-(2,2-Difluoro-indan-4-yl)-piperazin-1-yl]-butoxy}-1H-[1,8]naphthyridin-2-one] | 1 nM | 
O=c1ccc2ccc(OCCCCN3CCN(c4cccc5ccccc45)CC3)nc2[nH]1 [Example B47, 7-[4-(4-Naphthalen-1-yl-piperazin-1-yl)-butoxy]-1H-[1,8]naphthyridin-2-one] | 0.3 nM | 
O=c1ccc2ccc(OCCCCN3CCN(c4cccc5cc(F)ccc45)CC3)nc2[nH]1 [Example B48, 7-{4-[4-(6-Fluoro-naphthalen-1-yl)-piperazin-1-yl]-butoxy}-1H-[1,8]naphthyridin-2-one] | 1 nM | 
O=c1ccc2ccc(OCCCCN3CCN(c4cccc5cccc(F)c45)CC3)nc2[nH]1 [Example B50, 7-{4-[4-(8-Fluoro-naphthalen-1-yl)-piperazin-1-yl]-butoxy}-1H-[1,8]naphthyridin-2-one] | 1 nM | 
O=c1ccc2ccc(OCCCCN3CCN(c4cccc5c(F)cccc45)CC3)nc2[nH]1 [Example B51, 7-{4-[4-(5-Fluoro-naphthalen-1-yl)-piperazin-1-yl]-butoxy}-1H-[1,8]naphthyridin-2-one] | 3.5 nM | 
O=c1ccc2ccc(OCCCCN3CCN(c4ccc(F)c5ccccc45)CC3)nc2[nH]1 [Example B52, 7-{4-[4-(4-Fluoro-naphthalen-1-yl)-piperazin-1-yl]-butoxy}-1H-[1,8]naphthyridin-2-one] | 3.5 nM | 
O=c1ccc2ccc(OCCCCN3CCN(c4cc(F)cc5ccccc45)CC3)nc2[nH]1 [Example B53, 7-{4-[4-(3-Fluoro-naphthalen-1-yl)-piperazin-1-yl]-butoxy}-1H-[1,8]naphthyridin-2-one] | 1.1 nM | 
O=c1ccc2ccc(OCCCCN3CCN(c4c(F)ccc5ccccc45)CC3)nc2[nH]1 [Example B54, 7-{4-[4-(2-Fluoro-naphthalen-1-yl)-piperazin-1-yl]-butoxy}-1H-[1,8]naphthyridin-2-one] | 2.8 nM | 
O=c1ccc2ccc(OCCCCN3CCN(c4cccc5cc(F)c(F)cc45)CC3)nc2[nH]1 [Example B55, 7-{4-[4-(6,7-Difluoro-naphthalen-1-yl)-piperazin-1-yl]-butoxy}-1H-[1,8]naphthyridin-2-one] | 1 nM | 
O=c1ccc2ccc(OCCCCN3CCN(c4cccc5cc(Cl)ccc45)CC3)nc2[nH]1 [Example B57, 7-{4-[4-(6-Chloro-naphthalen-1-yl)-piperazin-1-yl]-butoxy}-1H-[1,8]naphthyridin-2-one] | 4.1 nM | 
O=c1ccc2ccc(OCCCCN3CCN(c4cccc5c(Cl)cccc45)CC3)nc2[nH]1 [Example B58, 7-{4-[4-(5-Chloro-naphthalen-1-yl)-piperazin-1-yl]-butoxy}-1H-[1,8]naphthyridin-2-one] | 12.5 nM | 
O=c1ccc2ccc(OCCCCN3CCN(c4cccc5cccc(Cl)c45)CC3)nc2[nH]1 [Example B59, 7-{4-[4-(8-Chloro-naphthalen-1-yl)-piperazin-1-yl]-butoxy}-1H-[1,8]naphthyridin-2-one] | 5.1 nM | 
COc1ccc2cccc(N3CCN(CCCCOc4ccc5ccc(=O)[nH]c5n4)CC3)c2c1 [Example B60, 7-{4-[4-(7-Methoxy-naphthalen-1-yl)-piperazin-1-yl]-butoxy}-1H-[1,8]naphthyridin-2-one] | 1.6 nM | 
COc1ccc2c(N3CCN(CCCCOc4ccc5ccc(=O)[nH]c5n4)CC3)cccc2c1 [Example B61, 7-{4-[4-(6-Methoxy-naphthalen-1-yl)-piperazin-1-yl]-butoxy}-1H-[1,8]naphthyridin-2-one] | 23.9 nM | 
CC(=O)c1ccc2cccc(N3CCN(CCCCOc4ccc5ccc(=O)[nH]c5n4)CC3)c2c1 [Example B62, 7-{4-[4-(7-Acetyl-naphthalen-1-yl)-piperazin-1-yl]-butoxy}-1H-[1,8]naphthyridin-2-one] | 1 nM | 
CC(=O)c1ccc2c(N3CCN(CCCCOc4ccc5ccc(=O)[nH]c5n4)CC3)cccc2c1 [Example B63, 7-{4-[4-(6-Acetyl-naphthalen-1-yl)-piperazin-1-yl]-butoxy}-1H-[1,8]naphthyridin-2-one] | 47.9 nM | 
CC(=O)c1cccc2c(N3CCN(CCCCOc4ccc5ccc(=O)[nH]c5n4)CC3)cccc12 [Example B64, 7-{4-[4-(5-Acetyl-naphthalen-1-yl)-piperazin-1-yl]-butoxy}-1H-[1,8]naphthyridin-2-one] | 17 nM | 
CC(=O)c1ccc(N2CCN(CCCCOc3ccc4ccc(=O)[nH]c4n3)CC2)c2ccccc12 [Example B65, 7-{4-[4-(4-Acetyl-naphthalen-1-yl)-piperazin-1-yl]-butoxy}-1H-[1,8]naphthyridin-2-one] | 9.2 nM | 

Compound | Ki (Table 1) | Ki (Table 2)
CC(=O)c1ccc2ccccc2c1N1CCN(CCCCOc2ccc3ccc(=O)[nH]c3n2)CC1 [Example B66, 7-{4-[4-(2-Acetyl-naphthalen-1-yl)-piperazin-1-yl]-butoxy}-1H-[1,8]naphthyridin-2-one] | 29.2 nM | 
N#Cc1ccc2cccc(N3CCN(CCCCOc4ccc5ccc(=O)[nH]c5n4)CC3)c2c1 [Example B67, 8-{4-[4-(7-Oxo-7,8-dihydro-[1,8]naphthyridin-2-yloxy)-butyl]-piperazin-1-yl}-naphthalene-2-carbonitrile] | 2.5 nM | 
Cn1c(=O)ccc2ccc(OCCCCN3CCN(c4cccc5ccccc45)CC3)nc21 [Example B68, 1-Methyl-7-[4-(4-naphthalen-1-yl-piperazin-1-yl)-butoxy]-1H-[1,8]naphthyridin-2-one] | 4.5 nM | 
O=c1ccc2ccc(OCCCN3CCN(c4cccc(Cl)c4Cl)CC3)nc2[nH]1 [Example C1, 7-{3-[4-(2,3-Dichloro-phenyl)-piperazin-1-yl]-propoxy}-1H-[1,8]naphthyridin-2-one] | 6.6 nM | 
CC1(C)CC(=O)Nc2nc(OCCCCN3CCN(c4cccc5cccnc45)CC3)ccc21 [Example C1′, 4,4-Dimethyl-7-[4-(4-quinolin-8-yl-piperazin-1-yl)-butoxy]-3,4-dihydro-1H-[1,8]naphthyridin-2-one] |  | 6.2 nM
O=c1ccc2ccc(OCCCN3CCN(c4cccc5ccccc45)CC3)nc2[nH]1 [Example C2, 7-[3-(4-Naphthalen-1-yl-piperazin-1-yl)-propoxy]-1H-[1,8]naphthyridin-2-one] | 4.7 nM | 
CC1(C)CC(=O)Nc2nc(OCCCCN3CCN(c4cccc5c4OCCO5)CC3)ccc21 [Example C2′, 7-{4-[4-(2,3-Dihydro-benzo[1,4]dioxin-5-yl)-piperazin-1-yl]-butoxy}-4,4-dimethyl-3,4-dihydro-1H-[1,8]naphthyridin-2-one] |  | 1.9 nM
O=C1CCc2ccc(OCCCN3CCN(c4cccc5ccccc45)CC3)nc2N1 [Example C3, 7-[3-(4-Naphthalen-1-yl-piperazin-1-yl)-propoxy]-3,4-dihydro-1H-[1,8]naphthyridin-2-one] | 6.8 nM | 
CC1(C)CC(=O)Nc2nc(OCCCCN3CCN(c4cccc5c4NC(=O)CC5)CC3)ccc21 [Example C3′, 4,4-Dimethyl-7-{4-[4-(2-oxo-1,2,3,4-tetrahydro-quinolin-8-yl)-piperazin-1-yl]-butoxy}-3,4-dihydro-1H-[1,8]naphthyridin-2-one] |  | 7 nM
O=c1ccc2ccc(OCCN3CCN(c4cccc(Cl)c4Cl)CC3)nc2[nH]1 [Example C4, 7-{2-[4-(2,3-Dichloro-phenyl)-piperazin-1-yl]-ethoxy}-1H-[1,8]naphthyridin-2-one] | 54.1 nM | 
CC1(C)CC(=O)Nc2nc(OCCCCN3CCN(c4cccc5ccc(=O)[nH]c45)CC3)ccc21 [Example C4′, 4,4-Dimethyl-7-{4-[4-(2-oxo-1,2-dihydro-quinolin-8-yl)-piperazin-1-yl]-butoxy}-3,4-dihydro-1H-[1,8]naphthyridin-2-one] |  | 18.4 nM
CC(CCCN1CCN(c2cccc(Cl)c2Cl)CC1)Oc1ccc2c(n1)NC(=O)CC2 (centres unmarked) [Example C5, 7-{4-[4-(2,3-Dichloro-phenyl)-piperazin-1-yl]-1-methyl-butoxy}-3,4-dihydro-1H-[1,8]naphthyridin-2-one] | 1.4 nM | 
CC1(C)CC(=O)Nc2nc(OCCCCN3CCN(c4cccc5ccoc45)CC3)ccc21 [Example C5′, 7-[4-(4-Benzofuran-7-yl-piperazin-1-yl)-butoxy]-4,4-dimethyl-3,4-dihydro-1H-[1,8]naphthyridin-2-one] |  | 3 nM
CC(CCCN1CCN(c2cccc3ccccc23)CC1)Oc1ccc2c(n1)NC(=O)CC2 (centres unmarked) [Example C6, 7-[1-Methyl-4-(4-naphthalen-1-yl-piperazin-1-yl)-butoxy]-3,4-dihydro-1H-[1,8]naphthyridin-2-one] | 2 nM | 
CC1(C)CC(=O)Nc2nc(OCCCCN3CCN(c4cccc5c4OCCC5)CC3)ccc21 [Example C6′, 7-[4-(4-Chroman-8-yl-piperazin-1-yl)-butoxy]-4,4-dimethyl-3,4-dihydro-1H-[1,8]naphthyridin-2-one] |  | 1.4 nM
CC(C)(CCCN1CCN(c2cccc3ccccc23)CC1)Oc1ccc2c(n1)NC(=O)CC2 [Example C8, 7-[1,1-Dimethyl-4-(4-naphthalen-1-yl-piperazin-1-yl)-butoxy]-3,4-dihydro-1H-[1,8]naphthyridin-2-one] | 1.4 nM | 
Cc1cccc(N2CCN(CCCCCc3ccc4c(n3)NC(=O)CC4)CC2)c1Cl [Example C10, 7-{5-[4-(2-Chloro-3-methyl-phenyl)-piperazin-1-yl]-pentyl}-3,4-dihydro-1H-[1,8]naphthyridin-2-one] | 7 nM | 
O=C1CCc2ccc(CCCCCN3CCN(c4ccc(F)c(Cl)c4Cl)CC3)nc2N1 [Example C11, 7-{5-[4-(2,3-Dichloro-4-fluoro-phenyl)-piperazin-1-yl]-pentyl}-3,4-dihydro-1H-[1,8]naphthyridin-2-one] | 16.4 nM | 
O=C1CCc2ccc(CCCCCN3CCN(c4cccc5c4CCCC5)CC3)nc2N1 [Example C12, 7-{5-[4-(5,6,7.8-Tetrahydro-naphthalen-1-yl)-piperazin-1-yl]-pentyl}-3,4-dihydro-1H-[1,8]naphthyridin-2-one] | 13.5 nM | 
